From article PMC4242493
Some of the results follow. The list includes weakly bound sequences.

Target: MaxL homodimer (UniProt P61244)
Assay: universal protein-binding microarray (PBM)
Conditions: PBS-based mixture, 10 nM His-tagged protein dimer, 2% milk, 200 ng/uL BSA, 50 ng/uL salmon testes DNA, 0.02% TX-100; detection with Alexa 488 anti-His …; high values mean tight binding; most listed sequences are background and not binding sites; double strand, one strand shown

UniProt P61244, sequence (P61244 whole entry): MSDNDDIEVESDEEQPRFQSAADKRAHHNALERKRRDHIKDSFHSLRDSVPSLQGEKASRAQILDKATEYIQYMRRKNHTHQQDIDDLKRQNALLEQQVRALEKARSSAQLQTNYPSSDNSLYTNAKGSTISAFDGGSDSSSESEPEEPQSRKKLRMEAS

| Sequence | binding signal (normalized occupancy) |
| --- | --- |
| ACGAACCT | 0.0687 |
| CGCTCCAA | 0.0713 |
| CATCCAGG | 0.0738 |
| CTAGCTCC | 0.0747 |
| AACACTAC | 0.0726 |
| ACTAAGCT | 0.0637 |
| GAACCGGC | 0.0681 |
| CTCCGTAC | 0.072 |
| CACGATTA | 0.0799 |
| ATAACCCG | 0.0746 |
| GTGCTCCA | 0.0766 |
| CTCCTTCC | 0.081 |
| GCAGAGCC | 0.0683 |
| TGTTGAAA | 0.0755 |
| ACTAGCTC | 0.0723 |
| GATGGTCA | 0.0763 |
| CAAAAAAA | 0.0719 |
| ACAAGCGG | 0.0698 |
| AACCTACA | 0.0778 |
| ATAAGAGC | 0.0718 |
| CCACGCGC | 0.157 |
| AACGAGAA | 0.0745 |

| Sequence | binding signal (normalized occupancy) |
| --- | --- |
| AACCCACG | 0.0944 |
| TGAACACA | 0.0761 |
| AGGAGTCC | 0.0714 |
| GCCAGACC | 0.0697 |
| AGACGGTA | 0.0685 |
| GCATCAAA | 0.0774 |
| AAACACGT | 0.106 |
| ATACTAAC | 0.0807 |
| AAATTGCT | 0.0723 |
| GAAGAGGC | 0.0738 |
| CTGAGGAC | 0.0703 |
| CTTCCAGA | 0.0713 |
| TGATCTAA | 0.0794 |
| AAGGCCTC | 0.0711 |
| ACAGTTGG | 0.0661 |
| AATATATA | 0.0875 |
| GTTCATCA | 0.0772 |
| CGTCGGGC | 0.0634 |
| CCAGTGAC | 0.0714 |
| TGAGAGAA | 0.0879 |
| CGACATTC | 0.0758 |
| CGTCCTCC | 0.0755 |

| Sequence | binding signal (normalized occupancy) |
| --- | --- |
| ACATTCTA | 0.0802 |
| AGGACGTA | 0.0761 |
| CTTAAATA | 0.0752 |
| GGGATGGA | 0.0821 |
| TCAAATAA | 0.0786 |
| GTCAAGAA | 0.0742 |
| GCGACAAA | 0.0733 |
| CGTGTCGA | 0.0757 |
| ACAGCCAG | 0.0734 |
| ATTAAACG | 0.0777 |
| AGAGTCGG | 0.068 |
| GACGAGAC | 0.0761 |
| CAAGGAAG | 0.074 |
| ACCACTCA | 0.0788 |
| GCTTGCTA | 0.0702 |
| TAAGGGGA | 0.0736 |
| CCGTTTGA | 0.0729 |
| AAGGTGCC | 0.0753 |
| CTTGCCAA | 0.0716 |
| CGCGAGAA | 0.0735 |
| AAGCTCCG | 0.0661 |
| AATTCAGC | 0.0753 |

| Sequence | binding signal (normalized occupancy) |
| --- | --- |
| AATCACGG | 0.0727 |
| GAGATATC | 0.0698 |
| AGGTGCTC | 0.0817 |
| AATACCGA | 0.0704 |
| AAAACTCG | 0.069 |
| CTAGGGAA | 0.0709 |
| ACGAGCAC | 0.0839 |
| AGAGGCCT | 0.0686 |
| CTGTTAAC | 0.0785 |
| AACTAGAC | 0.0708 |
| AACACCGC | 0.0718 |
| GAGGCCAC | 0.0789 |
| AGGGGGAT | 0.0827 |
| CCAGGGAG | 0.068 |
| CGTACACG | 0.0971 |
| AGCGTGAC | 0.101 |
| TGCTACAA | 0.0792 |
| GAAGCTTC | 0.0666 |
| AACAAGTT | 0.0695 |
| GTTAGTTA | 0.0776 |
| CATAGAAG | 0.0744 |
| AAAGACCG | 0.0683 |

| Sequence | binding signal (normalized occupancy) |
| --- | --- |
| CTACCCTA | 0.0765 |
| CAATGATG | 0.0851 |
| ACTTCCCT | 0.0738 |
| CAGGAACG | 0.0705 |
| CATCAGGA | 0.0778 |
| AACTCAAG | 0.0679 |
| ACCAGCAT | 0.0829 |
| GGGTCGAC | 0.0706 |
| CACGGCTC | 0.0728 |
| CTTATAGA | 0.0769 |
| ATATCCAT | 0.088 |
| AGGCCCCT | 0.0749 |
| ACACTGCG | 0.077 |
| CTGGGAAC | 0.0716 |
| GGTCATAA | 0.073 |
| GCGTGACC | 0.103 |
| ATACATCA | 0.087 |
| AAACGCTG | 0.0733 |
| ATCTAACG | 0.0779 |
| CCCAGCAG | 0.0737 |
| ACACCTGC | 0.0956 |
| CGACCCTA | 0.0751 |
